Assay results: the supplement of paper PMC11060735
Among all 1,800 compounds or so, about 50 (3%) showed activity. The list shows a part of the results.

tested on: mouse p16Ink4a+/- lung fibroblasts (INKBRITE, bleomycin-injured); assay: percentage of GFP+ (p16Ink4a+) fibroblasts among all cells in well; higher = less depletion of p16Ink4a+ cells, active = 20 or less; conditions: 1 µM; 3 days
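Also: fibroblasts sorted 14 days after bleomycin, GFP+ and GFP− mixed 1:1 in 384-well plates (GFP− as in-well control), imaged after Hoechst and NucView530 staining, reference wells lacked compound.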

Structure (SMILES) | percentage of GFP+
CC1(C)CCC(c2ccc(Cl)cc2)=C(CN2CCN(c3ccc(C(=O)NS(=O)(=O)c4ccc(N[C@H](CCN5CCOCC5)CSc5ccccc5)c(S(=O)(=O)C(F)(F)F)c4)cc3)CC2)C1 [Navitoclax] | inactive: 53%
CCOC(=O)[C@H](CCc1ccccc1)N[C@H]1CCCN2CCC[C@@H](C(=O)O)N2C1=O [Cilazapril] | inactive: 39.2%
CCOc1ccc2nc3cc(N)ccc3c(N)c2c1 [Ethacridine Lactate] | inactive: 52%
CC(C)c1nc(CN(C)C(=O)N[C@H](C(=O)N[C@@H](Cc2ccccc2)C[C@H](O)[C@H](Cc2ccccc2)NC(=O)OCc2cncs2)C(C)C)cs1 [Ritonavir] | inactive: 42%
CCOC(=O)c1ccc(N)cc1 [Benzocaine] | inactive: 52.1%
NC(=O)c1cccc(-c2cccc(OC(=O)NC3CCCCC3)c2)c1 | inactive: 41.3%
O=C(O)C1=CC(O)C(O)[C@H](O)C1 (some centres undefined) [Shikimic Acid] | inactive: 30.8%
CNCc1ccc(-c2cc(-c3nc(-c4ccc(S(=O)(=O)C(C)C)cc4)cnc3N)on2)cc1 | inactive: 40%
NC[C@H]1CC[C@@H](C(=O)O)CC1 [Tranexamic Acid] | inactive: 45.5%
O=C(O)CCc1nc(-c2ccccc2)c(-c2ccccc2)o1 [Oxaprozin] | inactive: 46%
COc1cc(/C=C/C(=O)O)ccc1O [Ferulic Acid] | inactive: 43.1%
O=C(O[C@@H]1Cc2c(O)cc(O)cc2O[C@@H]1c1cc(O)c(O)c(O)c1)c1cc(O)c(O)c(O)c1 [Epigallocatechin-3-monogallate] | inactive: 40.6%
CCCCC1=NC2(CCCC2)C(=O)N1Cc1ccc(-c2ccccc2-c2nn[nH]n2)cc1 [Irbesartan] | inactive: 39.6%
N#Cc1ccc2[nH]cc(CCCCN3CCN(c4ccc5oc(C(N)=O)cc5c4)CC3)c2c1 [Vilazodone] | inactive: 44.8%
CC(C)=CCC[C@](C)(O[C@@H]1O[C@H](CO[C@@H]2OC[C@@H](O)[C@H](O)[C@H]2O)[C@@H](O)[C@H](O)[C@H]1O)[C@H]1CC[C@]2(C)[C@@H]1[C@H](O)C[C@@H]1[C@@]3(C)CC[C@H](O[C@@H]4O[C@H](CO)[C@@H](O)[C@H](O)[C@H]4O)C(C)(C)[C@@H]3CC[C@]12C [Gynostemma Extract] | inactive: 45.5%
C[C@H](NC(=O)/C(C#N)=C/c1cccc(Br)n1)c1ccccc1 | inactive: 43%
CN1CCC(=C2c3ccccc3CCc3cccnc32)CC1 [Azatadine] | inactive: 53.9%
COc1ccc([C@@H]2CC(=O)c3c(O)cc(O)cc3O2)cc1O [Hesperetin] | inactive: 47.8%
O=c1c(O)c(-c2ccc(O)cc2O)oc2cc(O)cc(O)c12 [Morin] | inactive: 42.4%
C[C@@H]1C/C=C/C=C/C=C/C=C/C(O[C@@H]2O[C@H](C)[C@@H](O)[C@H](N)[C@@H]2O)C[C@@H]2O[C@](O)(C[C@@H](O)C[C@H]3O[C@@H]3/C=C/C(=O)O1)C[C@H](O)[C@H]2C(=O)O (some centres undefined) [Natamycin] | inactive: 41.6%

Structure (SMILES) | percentage of GFP+
CCN(CC)CCCC(C)Nc1c2ccc(Cl)cc2nc2ccc(OC)cc12 (centres undefined) [Quinacrine] | inactive: 46.6%
O=C1CCc2cc(OCCCCc3nnnn3C3CCCCC3)ccc2N1 [Cilostazol] | inactive: 45.1%
O=C(O)CCc1ccc(NCc2cccc(Oc3ccccc3)c2)cc1 | inactive: 49.9%
COc1ccc(Cl)cc1NC(=O)Nc1cc(C)nc2ccccc12 | inactive: 49.7%
COC(=O)C1=CO[C@@H](O[C@@H]2O[C@H](CO)[C@@H](O)[C@H](O)[C@H]2O)[C@@H]2C(CO)=CC[C@H]12 [Geniposide] | inactive: 45.3%
CC(c1cc2ccccc2s1)N(O)C(N)=O (centres undefined) [Zileuton] | inactive: 36.8%
C=C[C@H]1CN2CC[C@H]1C[C@H]2[C@H](O)c1ccnc2ccc(OC)cc12 [Quinine] | inactive: 39.1%
C[C@@H]1[C@H](O)[C@@H](C)/C=C/C=C/C=C/C=C/C=C/C=C/C=C/[C@H](O[C@@H]2O[C@H](C)[C@@H](O)[C@H](N)[C@@H]2O)C[C@@H]2O[C@](O)(C[C@@H](O)C[C@@H](O)[C@H](O)CC[C@@H](O)C[C@@H](O)CC(=O)O[C@H]1C)C[C@H](O)[C@H]2C(=O)O [Amphotericin B] | inactive: 44.2%
c1ccc2c(Oc3nc(Nc4ccc(N5CCOCC5)cc4)c4ncn(C5CCCCC5)c4n3)cccc2c1 [Purmorphamine] | inactive: 32.7%
COc1ccc(CC2c3cc(OC)c(OC)cc3CC[N+]2(C)CCC(=O)OCCCCCOC(=O)CC[N+]2(C)CCc3cc(OC)c(OC)cc3C2Cc2ccc(OC)c(OC)c2)cc1OC (centres undefined) [Atracurium Besylate] | inactive: 36.5%
CC(=O)[C@H]1CC[C@H]2[C@@H]3CC=C4C[C@@H](O)CC[C@]4(C)[C@H]3CC[C@]12C [Pregnenolone] | inactive: 41.7%
COc1cccc(Nc2c(C(N)=O)cnc3c(C)cc(S(=O)(=O)c4cccc(C(=O)N(C)C)c4)cc23)c1 | inactive: 49.9%
CC(C(=O)O)c1ccc2c(c1)CC(=O)c1ccccc1S2 (centres undefined) [Zaltoprofen] | inactive: 45.1%
CCC[C@H](NC(=O)[C@@H]1[C@H]2CCC[C@H]2CN1C(=O)[C@@H](NC(=O)[C@@H](NC(=O)c1cnccn1)C1CCCCC1)C(C)(C)C)C(=O)C(=O)NC1CC1 [Telaprevir] | inactive: 42.6%
Cc1nc(NC(=O)N2CCC[C@H]2C(N)=O)sc1-c1ccnc(C(C)(C)C(F)(F)F)c1 | inactive: 34.4%
CCC[C@H](NC(=O)/C(C#N)=C/c1cccc(Br)n1)c1ccccc1 [Degrasyn] | active: 13.1%
CCN(c1cc(-c2ccc(CN3CCOCC3)cc2)cc(C(=O)NCc2c(C)cc(C)nc2O)c1C)C1CCOCC1 | inactive: 54.5%
CCn1c(-c2nonc2N)nc2c(C#CC(C)(C)O)ncc(OC[C@H]3CCCNC3)c21 | inactive: 40.4%
C[C@H](NC(=O)CCc1nc(O)c2ccccc2n1)c1ccccc1 | inactive: 48.5%
